Laboratory results reported in PubChem BioAssay AID1508623 (National Center for Advancing Translational Sciences (NCATS), 2021).
Screen size: about 48,000 compounds; about 450 (0.94%) were called active. About 19% were inconclusive and are not listed. Calls follow the shape of the dose curve; as a rule, active = well fitted inhibition curve with a large enough effect; inconclusive = small, poorly fitted or top-dose-only effect; inactive = no such curve, though single readings can be large or run the other way. The list shows a part of the results.

Assay: Primary qHTS for Identification of Small Molecule Inhibitors of Huntingtin Promoter Activity; also: nearly all actives have a fitted effect of over 50% in size
Conditions: HEK293 HTT promoter firefly luciferase reporter (activity 0% = vehicle and -100% = no light), 24 h; series mostly up to 57.5 µM; activity change, negative = inhibition: at the top concentration
How it was run: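 Firefly luciferase readout (Dual-Glo, 10 min RT) after 24 h, 37 °C compound exposure (final up to 57.5 uM) of HEK293 reporter cells cultured 24 h beforehand; PTC124 at 50 uM final as control inhibitor; activity scaled vehicle 0%, zero RLU -100%.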

Activity change, negative = inhibition, inactive:
COc1cccc(-c2cn3c(n2)sc2cc(C(=O)NCCc4ccccc4)ccc23)c1 8.21%
Cc1cc(-c2ccc(C)c(S(=O)(=O)N(C(C)C)C3CCCCC3)c2)on1 -10.3%
CCn1c(=O)c2c(nc(C=Cc3ccc(OC)c(OC)c3)n2C)n(CC)c1=O -2.9%
CC1(C)O[C@H]2[C@@H](O1)[C@@H](C(=O)Nc1cc(F)ccc1F)O[C@@H]1OC(C)(C)O[C@@H]12 4.62%
COc1cc2c(cc1OC)C(C(C(=O)N(CCc1ccc(OC)c(OC)c1OC)CCc1ccc(OC)c(OC)c1OC)c1ccccc1)=NCC2 (centres undefined) -15.2%
Cc1cccc(-c2cc(C(=O)O)c3c(-c4ccc(F)cc4)[nH]nc3n2)c1 -8.65%
Cc1ccc2nc(N(Cc3cccnc3)C(=O)CCc3ccccc3)sc2c1 -11.3%
CNC(=O)c1ccc(N2C(=S)N(c3ccc(C#N)c(C(F)(F)F)c3)C(=O)C2(C)C)cc1F -6.09%
COc1ccc(-c2nc3n(n2)C(c2cccc(C)c2)C(C(N)=O)=C(C)N3)cc1OC (centres undefined) -0.254%
O=C(CCBr)N1CCN(C(=O)CCBr)CC1 7.33%
CCOC(=O)C1=C(CN2CCCCC2)NC(=O)NC1c1ccc(OC)cc1 (centres undefined) -18.2%
Cc1ccc(-c2cn3c(n2)sc2cc(C(=O)NC4CCCCC4)ccc23)cc1 -17.4%
COc1cc(OC)c(NC(=O)Nc2cc(C)on2)cc1Cl 9.9%
CCOc1ccccc1NC(=O)c1cn(C2CCCCC2)c(=O)c2c1c1ccccc1n2C -14.5%
COc1ccc(CCNC(=O)CCn2c(=O)c3cccn3c3ccc(F)cc32)cc1OC 0.47%
NS(=O)(=O)c1ccc(CCNC(=O)CCn2c(=O)c3cccn3c3cccnc32)cc1 -3.52%
Cc1cc(F)ccc1NC(=O)CN1C(=O)CCc2cc(S(=O)(=O)N3CCOCC3)ccc21 -12.4%
CCOc1cc2ncc(C#N)c(Nc3ccc(OCc4ccccn4)c(Cl)c3)c2cc1NC(=O)C=CCN(C)C -27%
COc1cc2nc(N3CCN(C(=O)C4COc5ccccc5O4)CC3)nc(N)c2cc1OC (centres undefined)
Cc1cc(Br)ccc1NC(=O)C(NS(=O)(=O)c1cccs1)c1ccccc1 (centres undefined) -26.4%
COc1ccc(Cl)cc1NC(=O)c1cc2nc(-c3ccc(C)cc3)cc(C(F)(F)F)n2n1 -16.5% [at 11.5 µM]
CCOC(=O)C(C)Nc1ncnc2onc(C)c12 (centres undefined) -7.45%
COc1cc(NC(=O)CCCN2C(=O)CCn3nc(-c4cn(C)c5ccccc45)cc32)cc(OC)c1 -22.2%
CSc1nc(C)cc(Nc2cccc(C(=O)O)c2)n1 47.6%
O=c1c(O)c(-c2ccc(O)cc2)oc2cc(O)cc(O)c12 49.2%
Fc1ccc(Nc2nc(-c3ccc(F)cc3)c3c(n2)-c2ccccc2OC3)cc1 -8.46%
Cc1sc2c(c1C)c(=O)n(-c1ccc(Cl)cc1)c(=O)n2CC(=O)c1ccccc1 -4.89%
COc1cccc(C(=O)Nc2ccc3nc(SCC(=O)N4CCc5ccccc54)sc3c2)c1 -9.96%
Cc1c(NC(=O)c2ccc(-c3ccc(F)cc3)o2)cccc1-c1nc2ncccc2o1 2.92%
COc1cccc(CNC(=O)c2ccc3c(c2)sc2nc(-c4ccccc4)cn23)c1OC -3.24%
O=c1[nH]c2ccc(S(=O)(=O)Nc3cc(Cl)ccc3O)cc2o1 -12%
Cc1ccc(-c2nc3scc(CCNS(=O)(=O)c4c(C)noc4C)n3n2)cc1 -28.4%
CCC(=O)N1CCc2cc(Br)cc(S(=O)(=O)N3CCN(c4cccc(Cl)c4)CC3)c21 -3.54%
O=C(OCC1CCCO1)c1ccc2c(c1)N(Cc1cccc(F)c1)C(=O)c1ccccc1S2(=O)=O (centres undefined) 4.73%
Cc1nc2c(-c3ccc(F)cc3)c(C)nn2c(C)c1CCC(=O)NCc1cccc(Cl)c1 -9.07%
CC1CCc2nc(NC(=O)Cc3ccc(Cl)cc3)sc2C1 (centres undefined) -8.16% [at 11.5 µM]
CCOc1cccc(C2c3[nH]c4ccccc4c3CCN2C(=O)Cc2cccc(OCC)c2OCC)c1 (centres undefined) -32.3%
Cc1cc2c(cc1S(=O)(=O)CCC(=O)N(C)Cc1ccccc1)OCC(=O)N2 -1.16%
CSc1cccc(NC(=O)N2CCN(S(=O)(=O)c3ccc4c(ccn4C)c3)CC2)c1 -34.8%
O=C(CSc1nc(-c2ccccc2)no1)N1CCN(c2ccc(F)cc2)CC1 2.15%
COc1ccc(C2=NS(=O)(=O)N(C)C(C(=O)NC(C)c3ccccc3)=C2)cc1OC (centres undefined) -14.3%
CCOc1ccc(NC(=O)CCc2c(C)nc3c(c(C)nn3-c3ccccc3)c2C)cc1 9.54%
CC1CN(c2cc3c(cc2F)c(=O)c(C(=O)O)cn3-c2ccc(F)cc2F)CCN1 (centres undefined) -3.83% [at 6.01 µM]
Cc1ccc(S(=O)(=O)n2nc(C)c(S(=O)(=O)N3CCCCC3)c2C)cc1 -1.11%
CCc1ccc(CN(Cc2ccco2)C(=O)c2ccc(C)cc2)cc1 -21.2%
CC(=O)Nc1ccccc1-c1nc2ccccc2n(C(C)C(=O)Nc2cccc(C)c2C)c1=O (centres undefined) -20.9%
O=C(Nc1ccccc1)N(Cc1cccs1)c1ccc(Cl)cc1 -12.8%
O=S(=O)(c1ccc(Cl)cc1)c1nnn2c1nc(NCc1ccccc1)c1sccc12 -13.2%
Cc1ccc(-n2c(=O)[nH]c3sc4c(c3c2=O)CCCC4)cc1 -11.9%
CC(=O)N(Cc1cccnc1)c1nc2cc(C)cc(C)c2s1 -8.95%
CCc1ccc(C(=O)c2cn(CC(=O)Nc3cccc(C)c3C)c3nc(C)ccc3c2=O)cc1 4.54%
COc1ccccc1C(=O)N(Cc1ccco1)Cc1ccccc1F -23.5%
Cc1cccc(NC(=O)CSc2nc(C)c(Cc3ccccc3)c(=O)[nH]2)c1C -9.57%
Cc1ccc(CNC(=O)c2cc(Sc3ccc(F)cc3F)nc3ccccc23)cc1 -19.8%
CCC(C(=O)N(C)Cc1ccccc1)n1nc(C)c2sc3ccccc3c2c1=O (centres undefined) -24.2%
COc1ccc(CNC(=O)CCc2c(C)nn(-c3ccc(N4CCOCC4)nn3)c2C)cc1 -17.1%
COc1ccc(CCNC(=O)C2=C(C)C(=O)OC23CCCCC3)c(OC)c1 -14.3%
CC(=O)N1CCCC1c1nc2ccccc2n1Cc1cc(C)ccc1C (centres undefined) -29.5%
Cc1ccc2ccc3cc(C(=O)Nc4ccc(C)c(F)c4)nc3c2[nH]1 -16.6%
COc1ccc(NC(=O)C2CCCN(S(=O)(=O)c3ccc4[nH]c(=O)ccc4c3)C2)cc1OC (centres undefined) -4.13%
COc1ccc(-c2cc(C(=O)NCCc3ccccc3)c3c(-c4ccccc4)[nH]nc3n2)cc1 -4.5%
O=C(Cc1ccc(F)cc1)Nc1cccc(-c2nc3cccnc3s2)c1 -15.4%
Cc1ccc(CCNS(=O)(=O)c2ccc3c(c2)CCN3C(=O)CCC(=O)O)cc1 -6.32%
CCc1ccc(NC(=O)CCc2c(C)n(C)c3cc(-c4ccccc4C)nn3c2=O)cc1 2.06%
Cc1ccccc1C(=O)N1CCCCC1CCN1CCCCC1 (centres undefined) -4.74%
CC(=O)N1CCc2c(sc3c2c(=O)n(-c2ccccc2)c(=O)n3Cc2cccc(C(F)(F)F)c2)C1 -22.6%
COc1cccc(N=C2SC(C(=O)Nc3cccc(Cl)c3)CC(=O)N2C)c1 (centres undefined) -21.9%
CCc1nn(CC(=O)NCCCN2CCN(C)CC2)c(=O)c2cc3occc3n12 -15.4%
CSc1ncc(C(=O)N2CCN(c3ccc(Cl)cc3)CC2)c(C)n1 -1.08%
COc1ccc(C(=O)c2c(N)c(-c3nc(-c4ccccc4)cs3)c3ccccn23)cc1 -11.1%
COc1ccc(C)cc1NC(=O)c1oc2ccc(S(=O)(=O)N3CCOCC3)cc2c1C -10.5%
COC(=O)c1c(NC(=O)COc2ccc(Cl)cc2C)sc2c1CCCCC2 -13.8%
COc1ccc(OC)c(NC(=O)CSC2=Nc3ccccc3C3=NC(CCC(=O)NC4CCCCC4)C(=O)N23)c1 (centres undefined) -7.52%
Cc1nc2nc(C)c(CCC(=O)NCc3cccc(Cl)c3)c(C)n2n1 0.862%
O=C(Cn1c(=O)n(Cc2ccco2)c(=O)c2sc3ccccc3c21)Nc1ccccc1C(F)(F)F -14.7%
Cc1ccc(-n2nc(C)c3c(C)c(CCC(=O)NCc4ccccc4Cl)c(C)nc32)cc1 -15.5%
COc1ccc(C2=C(C(C)=O)Sc3nnc(-c4ccccc4)n3N2C(C)=O)cc1 -17.2%
CC(=O)NCCNC(=O)c1ccc2c(=O)n(CCc3ccccc3)c(=O)[nH]c2c1 42.1%
Fc1ccc(Cc2cn3cc(-c4ccc(F)cc4)nc3s2)cc1 -22.4%
COc1cc(NC(=O)c2cc3cc4cc(OC)ccc4nc3o2)cc(OC)c1 -1.37%
CCCCNC(=O)NS(=O)(=O)c1ccc(N)cc1 -7.15%
CCOc1cc(C2NC(=O)c3c(sc4c3CCN(C)C4)N2)ccc1OC(=O)c1ccc(F)cc1 (centres undefined) 13.4%
COC(=O)c1sc2ccccc2c1S(=O)(=O)N1CCN(c2ccc(C(C)=O)cc2)CC1 -30.8%
CC(=O)c1cc(-c2ccc(F)cc2)n(CCC(=O)NC2CCCCC2)c1C -25.7%
CC(C)CNc1cc(NC2CCCCC2)c2c3c(onc13)-c1ccccc1C2=O -28.4%
Cc1ccc(Cl)cc1N1CCN(C(=O)c2cn(C)c3ccc(S(=O)(=O)N4CCCCC4)cc3c2=O)CC1 -16.6% [at 11.5 µM]
CSc1ccc(CCNC(=O)CCc2c(C)nc3c4cccnc4nn3c2C)cc1 -17.1%
COc1cccc(CNCc2c(C(=O)O)c(C)n(Cc3ccc(F)cc3Cl)c2C)c1OC -12.5%
CCSc1nc2sc3c(c2c(=O)n1-c1ccc(C)cc1)CCCC3 -20.8%
CCn1c(=O)n(CC2CCC(C(=O)NC(C)C)CC2)c(=O)c2sccc21 (centres undefined) 0.692%
CC(C)(C)c1cc(NC(=O)Nc2ccc(-c3cn4c(n3)sc3cc(OCCN5CCOCC5)ccc34)cc2)no1 8.98%
COc1ccc(NC(=O)CSc2c(C(C)C)cnc3c2c(=O)n(C)c(=O)n3C)c(OC)c1 0.303%
CCOC(=O)c1cc(CC)sc1NC(=O)COc1ccccc1C -13.8%
Cc1cc(NC(=O)CN2CCC(O)CC2)nc2c1c(=O)oc1ccccc12 3.43%
